The values below come from PMC7819943, “Rice protein-binding microarrays: a tool to detect cis-acting elements near promoter regions in rice”.

Some of the results follow.

In the experiment the target is T1, OsWOX13 (Oryza sativa, UniProt Q5QMM3 1-267).
T1 sequence: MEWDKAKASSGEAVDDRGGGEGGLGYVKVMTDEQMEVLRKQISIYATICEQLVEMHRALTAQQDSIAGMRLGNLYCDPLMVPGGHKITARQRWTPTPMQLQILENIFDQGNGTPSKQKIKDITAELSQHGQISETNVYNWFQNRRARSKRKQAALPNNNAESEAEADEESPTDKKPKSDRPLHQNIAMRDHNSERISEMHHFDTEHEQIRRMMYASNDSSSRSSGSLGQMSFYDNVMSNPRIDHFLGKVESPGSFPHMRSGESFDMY
Briefly: protein-binding microarray (RPBM); PBS, 2% BSA, 51.3 ng/ul salmon testes DNA, 50 uM zinc acetate, 200 nM TF, 25 C, 1 h; high values mean tight binding. Conditions: protein: recombinant; tags: N-terminal polyhistidine and DsRed monomer fusion (pET32a); label: CyDye5-dUTP incorporated in the synthesized complementary strand; 3' TTTTT single-stranded linker to array surface; dsDNA, one strand shown. An outline of the steps:
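Transcription factors were made in E. coli BL21-CodonPlus as N-terminal fusions to a polyhistidine tag and DsRed, then purified on Ni–NTA. After primer extension with Cy5-dUTP and blocking with 2% BSA, a custom Agilent array was exposed for 1 h at 25 °C to 200 nM protein in PBS, 2% BSA, salmon testes DNA and 50 µM zinc acetate. Washed arrays were scanned on an Axon 4000B, and the binding signal is per-feature fluorescence intensity in arbitrary units.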
Regarding “GTCAAATCATGACGTAATTAGGCTTAAAAGATTTGTCTCGCGGAGTCACCTAGTGCAG”, the binding signal is 23300 fluorescence intensity (a.u.).

For the sequence “GCTGAACCTAACAAAATTCAATTATATGCAGCATATAATGCGGAGTCACCTAGTGCAG”, the binding signal was 3160 fluorescence intensity (a.u.).

As to “TAGGATTTAAATCATATGAAATTCCTAAATAAATCCTTTGCGGAGTCACCTAGTGCAG”, the binding signal was 7560 fluorescence intensity (a.u.).

With “TGGGATAAATTTACAATTACTACTATCTCCATTTTAAATACGGAGTCACCTAGTGCAG”, the binding signal is 12700 fluorescence intensity (a.u.).

As for “ATAATGATGAGTAGTAATATAATAATAGGTTGTAGATCAACGGAGTCACCTAGTGCAG”, the binding signal was 7770 fluorescence intensity (a.u.).

For the sequence “TTGAAAATTTAAAGAAATTGGAACGATGTGACGGAAAAGTCGGAGTCACCTAGTGCAG”, the binding signal is 9930 fluorescence intensity (a.u.).

In the case of “TTTAATTAACAAAATTATTGGTGACAGAGACCGAATATATCGGAGTCACCTAGTGCAG”, the binding signal was 38300 fluorescence intensity (a.u.).

Take “GTGGTGATTTGGGACCTAGATGACACACTATGACAAGTTCCGGAGTCACCTAGTGCAG”: the binding signal was 17400 fluorescence intensity (a.u.).

As for “AATTCAAATTTGAATCAGATATAATTCAAATTCAAATTTGCGGAGTCACCTAGTGCAG”, the binding signal is 7140 fluorescence intensity (a.u.).

With “TGATTAATCCGTAATTGCAGGAACCTAAATTACTAATGTCCGGAGTCACCTAGTGCAG”, the binding signal was 12400 fluorescence intensity (a.u.).

As for “GTTGATTTTGTAGGGTTAAATTGAAGTTTCCACTTGATATCGGAGTCACCTAGTGCAG”, the binding signal is 25500 fluorescence intensity (a.u.).

For the sequence “AGCCAATCAGTAAACAAGAAAACCACCCTGACCCCTGGCACGGAGTCACCTAGTGCAG”, the binding signal was 23500 fluorescence intensity (a.u.).

As for “GGCCATCAATCATGCCTTTAATCGCCTTGAATCGTCGCCTCGGAGTCACCTAGTGCAG”, the binding signal is 26200 fluorescence intensity (a.u.).

As to “GTGTGTGAAATTGATGTTTTGACTGGAACTTCTCTAGCGTCGGAGTCACCTAGTGCAG”, the binding signal is 16400 fluorescence intensity (a.u.).

Consider “CAAGATTAGAGTGTCATAAAGATGGAAGCACTAATCCCGACGGAGTCACCTAGTGCAG”, for which the binding signal is 4710 fluorescence intensity (a.u.).

Turning to “AGCGCAATTCAATTAATTAACTCAAAATCTAATGAGCACTCGGAGTCACCTAGTGCAG”, the binding signal was 20500 fluorescence intensity (a.u.).

As to “CCTGATTGCGTGTTGATTTGACAATATGGTGCTACAGTAACGGAGTCACCTAGTGCAG”, the binding signal was 54300 fluorescence intensity (a.u.).

With “ACCCGGATGATTGTTTTGGCTTCTGGATTTATCAAATGAACGGAGTCACCTAGTGCAG”, the binding signal was 12000 fluorescence intensity (a.u.).

With “CCATGCGGCCTAATTTGTGTCCTCTGATTTCGTAGCAAACCGGAGTCACCTAGTGCAG”, the binding signal was 5760 fluorescence intensity (a.u.).

Turning to “CAAGACCAGTCACACATGCTTAATTTGGGTGCACCGTGCACGGAGTCACCTAGTGCAG”, the binding signal was 4990 fluorescence intensity (a.u.).

As to “ATCATACAATTTTCCAATTAATGGGAAGATGCGATATTTTCGGAGTCACCTAGTGCAG”, the binding signal was 13100 fluorescence intensity (a.u.).

Regarding “ATGCTGACTGGGCGAATGACGTGTCCGTTTTCGACAGATCCGGAGTCACCTAGTGCAG”, the binding signal was 3990 fluorescence intensity (a.u.).

“CCCATTATAATTTTCTTTTGTTTCGGGTAGCGGCAGGAGGCGGAGTCACCTAGTGCAG”: the binding signal is 4690 fluorescence intensity (a.u.).

Turning to “CAGTTTTCCTTTCAATAATTGAAGGTTCCTTGGTTTTCATCGGAGTCACCTAGTGCAG”, the binding signal was 18600 fluorescence intensity (a.u.).

On to “TACTCCAGTAACATTTAATGAAATTAACGACGTTTCCTTGCGGAGTCACCTAGTGCAG”, for which the binding signal was 3180 fluorescence intensity (a.u.).

Take “ACCTCCTCAATCACACGCACATGTAATAGCTAGTCTAGTGCGGAGTCACCTAGTGCAG”: the binding signal is 14900 fluorescence intensity (a.u.).

Consider “ATTCTAATCAACATCAGCTAGGTAAAATTAAACTTGCCAACGGAGTCACCTAGTGCAG”, for which the binding signal was 9890 fluorescence intensity (a.u.).

As to “TTTAATAGGAGTATGTGATAGATCGCTCCATAAACATGCACGGAGTCACCTAGTGCAG”, the binding signal is 8780 fluorescence intensity (a.u.).

For the sequence “TCCCTGTCCTGACACAGCCTAATTAGGAGATCAAGCTCATCGGAGTCACCTAGTGCAG”, the binding signal was 9300 fluorescence intensity (a.u.).

For the sequence “CCTAATGAGCAATTGTATGTGCAGTGCAAGGAGCTGAGAACGGAGTCACCTAGTGCAG”, the binding signal was 6730 fluorescence intensity (a.u.).

“TATATGCTATCATTTAATTAAGATTGAATAGTTAGTTTGGCGGAGTCACCTAGTGCAG”: the binding signal was 8120 fluorescence intensity (a.u.).

With “AACGTAATTTGGCTCTCGCGTTCCTAACATGCTCTCTCGACGGAGTCACCTAGTGCAG”, the binding signal was 6700 fluorescence intensity (a.u.).

With “TATACTGATTATACTGCTAGCTTATCTAGGAGATGCATAGCGGAGTCACCTAGTGCAG”, the binding signal is 17500 fluorescence intensity (a.u.).

With “TCCCATCTTGATTATTCATATCCCACTACATGTTTCATAGCGGAGTCACCTAGTGCAG”, the binding signal is 7720 fluorescence intensity (a.u.).

Turning to “TAATTGCACACTGATTACACTGTAACCAACCAACCAACGACGGAGTCACCTAGTGCAG”, the binding signal was 4600 fluorescence intensity (a.u.).

Regarding “TAAATTATTATTATAATAAATAAACGAGGGCCCTCAATGTCGGAGTCACCTAGTGCAG”, the binding signal was 7400 fluorescence intensity (a.u.).

Consider “CGATAACGGCCTCGTCAATTGCATTACGCGAGCCACGAGGCGGAGTCACCTAGTGCAG”, for which the binding signal was 4900 fluorescence intensity (a.u.).

Turning to “ATGATTTTGTTTTGTTTTGCGAATAATTTTGGCGCCTCAACGGAGTCACCTAGTGCAG”, the binding signal was 6150 fluorescence intensity (a.u.).

Turning to “TTTCGATTGGATCGGGACAGCAAAGGTTTGGGGATTTGGTCGGAGTCACCTAGTGCAG”, the binding signal was 6350 fluorescence intensity (a.u.).

As to “GTCTCCCCAATTAATTCCTCTGAACAACTTCCTCGTAGTTCGGAGTCACCTAGTGCAG”, the binding signal is 6390 fluorescence intensity (a.u.).

Consider “GTACAAAATTTAAAATTATGTTATCATTTTAATATATTTTCGGAGTCACCTAGTGCAG”, for which the binding signal was 4960 fluorescence intensity (a.u.).

“ATGATTGCCATTTGACCTGTAGTACAGATTTAGCACTTGCCGGAGTCACCTAGTGCAG”: the binding signal was 47100 fluorescence intensity (a.u.).
